In publication PMC12820563 one finds binding signal (RPM ratio (pull-down/input)) data, which are given here for 31 sequences.

Some of the results follow. The list includes weakly bound sequences.

For the assay, the target named is T1, MBP-FoxP3dN (UniProt Q99JB6).
T1 sequence: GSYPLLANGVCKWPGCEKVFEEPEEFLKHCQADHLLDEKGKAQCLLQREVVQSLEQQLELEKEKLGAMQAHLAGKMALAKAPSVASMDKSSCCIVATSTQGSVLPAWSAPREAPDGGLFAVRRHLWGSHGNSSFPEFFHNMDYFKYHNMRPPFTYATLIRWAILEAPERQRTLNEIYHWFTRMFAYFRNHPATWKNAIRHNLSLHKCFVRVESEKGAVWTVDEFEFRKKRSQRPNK
Description: PD-seq (MBP pull-down with sequencing). Conditions: 20 mM Tris-HCl pH 7.5, 100 mM NaCl, 1.5 mM MgCl2, 0.4 uM protein, 0.1 uM dsDNA library, 30 min, room temperature, amylose pull-down; high values mean tight binding; double strand, one strand shown.
As for “GATGATTGTTCTCCCAGCTGATGAATTTTCCAGATCGAGTAAACAAATTTTCCTAATCTTTCTGTTCAAGCGCCATCTAC”, the binding signal (RPM ratio (pull-down/input)) was determined as 0.155. With “GATGATTGTTCTCCCAGCTGATGAATTGCCTCTTTCGAGTAAACAAATTTTCCTAATCTTTCTGTTCAAGCGCCATCTAC”, the binding signal (RPM ratio (pull-down/input)) amounted to 1.29. The value for “GATGATTGTTCTCCCAGCTGATGAATTACAGGACTCGAGTAAACAAATTTTCCTAATCTTTCTGTTCAAGCGCCATCTAC” was 0.297; that for “GATGATTGTTCTCCCAGCTGATGAATTCAATTTATCGAGTAAACAAATTTTCCTAATCTTTCTGTTCAAGCGCCATCTAC” was 1.59; that for “GATGATTGTTCTCCCAGCTGATGAATTCGTATGTTCGAGTAAACAAATTTTCCTAATCTTTCTGTTCAAGCGCCATCTAC” was 2.69. As for “GATGATTGTTCTCCCAGCTGATGAATTTGCACAATCGAGTAAACAAATTTTCCTAATCTTTCTGTTCAAGCGCCATCTAC”, the binding signal (RPM ratio (pull-down/input)) amounted to 0.76. Take “GATGATTGTTCTCCCAGCTGATGAATTTTGTCGGTCGAGTAAACAAATTTTCCTAATCTTTCTGTTCAAGCGCCATCTAC”: the binding signal (RPM ratio (pull-down/input)) was found to be 0.899. The value for “GATGATTGTTCTCCCAGCTGATGAATTAGACTAGTCGAGTAAACAAATTTTCCTAATCTTTCTGTTCAAGCGCCATCTAC” was 0.351; that for “GATGATTGTTCTCCCAGCTGATGAATTATTTTGGTCGAGTAAACAAATTTTCCTAATCTTTCTGTTCAAGCGCCATCTAC” was 0.995. On to “GATGATTGTTCTCCCAGCTGATGAATTTAGCTCGTCGAGTAAACAAATTTTCCTAATCTTTCTGTTCAAGCGCCATCTAC”, for which the binding signal (RPM ratio (pull-down/input)) turned out to be 0.607. Take “GATGATTGTTCTCCCAGCTGATGAATTTAGGAGTTCGAGTAAACAAATTTTCCTAATCTTTCTGTTCAAGCGCCATCTAC”: the binding signal (RPM ratio (pull-down/input)) is 0.485.

Turning to “GATGATTGTTCTCCCAGCTGATGAATTAGGCTTTTCGAGTAAACAAATTTTCCTAATCTTTCTGTTCAAGCGCCATCTAC”, the binding signal (RPM ratio (pull-down/input)) was determined as 2.23. The value for “GATGATTGTTCTCCCAGCTGATGAATTGCGCTGGTCGAGTAAACAAATTTTCCTAATCTTTCTGTTCAAGCGCCATCTAC” was 1.19. For “GATGATTGTTCTCCCAGCTGATGAATTCTGCCTCTCGAGTAAACAAATTTTCCTAATCTTTCTGTTCAAGCGCCATCTAC”, the binding signal (RPM ratio (pull-down/input)) turned out to be 5.87. Take “GATGATTGTTCTCCCAGCTGATGAATTCAAGCCGTCGAGTAAACAAATTTTCCTAATCTTTCTGTTCAAGCGCCATCTAC”: the binding signal (RPM ratio (pull-down/input)) is 0.451. With “GATGATTGTTCTCCCAGCTGATGAATTAGGAAGGTCGAGTAAACAAATTTTCCTAATCTTTCTGTTCAAGCGCCATCTAC”, the binding signal (RPM ratio (pull-down/input)) came to 0.23.

Take “GATGATTGTTCTCCCAGCTGATGAATTCATACGCTCGAGTAAACAAATTTTCCTAATCTTTCTGTTCAAGCGCCATCTAC”: the binding signal (RPM ratio (pull-down/input)) is 0.421. As to “GATGATTGTTCTCCCAGCTGATGAATTGTTACTCTCGAGTAAACAAATTTTCCTAATCTTTCTGTTCAAGCGCCATCTAC”, the binding signal (RPM ratio (pull-down/input)) turned out to be 0.89. With “GATGATTGTTCTCCCAGCTGATGAATTACTGTCATCGAGTAAACAAATTTTCCTAATCTTTCTGTTCAAGCGCCATCTAC”, the binding signal (RPM ratio (pull-down/input)) is 0.598. For “GATGATTGTTCTCCCAGCTGATGAATTCGTCTATTCGAGTAAACAAATTTTCCTAATCTTTCTGTTCAAGCGCCATCTAC”, the binding signal (RPM ratio (pull-down/input)) came out at 1.17. With “GATGATTGTTCTCCCAGCTGATGAATTAAGCTGCTCGAGTAAACAAATTTTCCTAATCTTTCTGTTCAAGCGCCATCTAC” the figure was 0.527. The value for “GATGATTGTTCTCCCAGCTGATGAATTGCGTCGATCGAGTAAACAAATTTTCCTAATCTTTCTGTTCAAGCGCCATCTAC” was 0.787. For the sequence “GATGATTGTTCTCCCAGCTGATGAATTGTTTATCTCGAGTAAACAAATTTTCCTAATCTTTCTGTTCAAGCGCCATCTAC”, the binding signal (RPM ratio (pull-down/input)) worked out at 6.57. The value for “GATGATTGTTCTCCCAGCTGATGAATTCGCGCACTCGAGTAAACAAATTTTCCTAATCTTTCTGTTCAAGCGCCATCTAC” was 0.646. In the case of “GATGATTGTTCTCCCAGCTGATGAATTCATATTATCGAGTAAACAAATTTTCCTAATCTTTCTGTTCAAGCGCCATCTAC”, the binding signal (RPM ratio (pull-down/input)) turned out to be 0.831. With “GATGATTGTTCTCCCAGCTGATGAATTTTCAGGTTCGAGTAAACAAATTTTCCTAATCTTTCTGTTCAAGCGCCATCTAC”, the binding signal (RPM ratio (pull-down/input)) is 0.214. As for “GATGATTGTTCTCCCAGCTGATGAATTAGTAATATCGAGTAAACAAATTTTCCTAATCTTTCTGTTCAAGCGCCATCTAC”, the binding signal (RPM ratio (pull-down/input)) was found to be 0.74. With “GATGATTGTTCTCCCAGCTGATGAATTGGCCTATTCGAGTAAACAAATTTTCCTAATCTTTCTGTTCAAGCGCCATCTAC” the figure was 0.481. For “GATGATTGTTCTCCCAGCTGATGAATTGTGATCTTCGAGTAAACAAATTTTCCTAATCTTTCTGTTCAAGCGCCATCTAC”, the binding signal (RPM ratio (pull-down/input)) turned out to be 1.11.

On to “GATGATTGTTCTCCCAGCTGATGAATTATCCGTATCGAGTAAACAAATTTTCCTAATCTTTCTGTTCAAGCGCCATCTAC”, for which the binding signal (RPM ratio (pull-down/input)) was 0.372. With “GATGATTGTTCTCCCAGCTGATGAATTACCAAGGTCGAGTAAACAAATTTTCCTAATCTTTCTGTTCAAGCGCCATCTAC” the figure was 0.177.
